# The other results are listed elsewhere or left out. At the low end of the ranking, values are background and their order means little.
# Target: T1, GST-Rok-C97-191 (UniProt O34857)
# T1 sequence: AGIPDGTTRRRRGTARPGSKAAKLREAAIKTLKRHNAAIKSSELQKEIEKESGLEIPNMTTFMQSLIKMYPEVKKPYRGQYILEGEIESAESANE
# Assay: protein binding microarray;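 note: rank score from −0.5 (least bound) to 0.5 (best bound)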
# Conditions: Rok is a gene silencer of Bacillus subtilis; high values mean tight binding; most listed sequences are background and not binding sites; double strand, one strand shown
row,Sequence,binding signal [E-score]
1,CGTTGTAC,0.108
2,AGAGTAGG,-0.15
3,CCCTCCTA,-0.199
4,CAAGTATC,0.138
5,GCGAGTCC,-0.172
6,AGACTGTC,-0.0186
7,GCTGGGTA,0.0228
8,GATGCGAC,-0.329
9,AGGGAGTC,-0.262
10,AGTAGAGG,-0.235
11,ATCCGTTG,0.0162
12,CACATAAA,-0.00301
13,ATGCTGTC,0.00475
14,AAGTCGGG,-0.145
15,CGCAAGCC,-0.217
16,AATTTAGC,0.308
17,AAATTCTC,0.0486
18,AAAGGCTC,-0.211
19,GAGCGTCC,-0.217
20,ACTTAAGA,-0.12
21,AGGTCCAG,-0.149
22,AGCCCGAC,-0.237
23,GAGGAACC,-0.0346
24,AGACATCG,-0.0827
25,GTTGTCTA,-0.0257

row,Sequence,binding signal [E-score]
1,CCTTGATC,0.0208
2,AAAAGTAG,0.344
3,CTTGTGAA,0.113
4,AAGACCAA,-0.0146
5,GGGATACA,-0.0961
6,ACACAAGA,0.0921
7,CCCCGCCG,-0.287
8,ACAAACCG,-0.027
9,GAAGACGC,-0.202
10,TACCTGAA,-0.017
11,AGACCCAA,-0.00361
12,CGTGCTCA,-0.255
13,CCTCTCCA,-0.164
14,TACGGGGA,0.0108
15,ATGGGTTG,0.153
16,CGTGCCTA,-0.157
17,CAAATTTA,0.31
18,CTCTTTTA,0.244
19,CTGATCCC,-0.392
20,AGTACTGG,0.0209
21,ACCTGAGA,-0.151
22,GTAGAACA,0.285
23,CTTGAAAA,-0.0109
24,GTCCAAAC,0.0408
25,AGTAGAAA,0.448

row,Sequence,binding signal [E-score]
1,CTTTGATC,-0.0822
2,CTGGCTAA,-0.246
3,TAAGATCA,0.2
4,ATACCCAC,0.0954
5,AACCTCGT,-0.0628
6,ATCCACTC,-0.112
7,CATCATTA,0.111
8,GGTTTCTA,0.353
9,AGGAATCA,-0.0157
10,AACGTTAG,0.313
11,AACCGTTC,-0.113
12,CGGATATA,0.298
13,GGTACATA,0.192
14,CATTGCAG,-0.272
15,ACCGCAGA,0.0841
16,AGAGCAAA,-0.158
17,CGGGACAA,-0.215
18,ATATCGGG,-0.00669
19,CTCGTGTC,-0.355
20,ACTGACCA,-0.00734
21,CGAGAAAC,0.0352
22,CGCTCCAG,-0.127
23,ATTTTTTA,0.211
24,TCCAGTAA,0.0938
25,AGATCGAT,0.144

row,Sequence,binding signal [E-score]
1,GCGTTCCA,0.0249
2,AGTTTGGC,0.102
3,CGGAACTA,0.262
4,CATAAATC,0.107
5,AATGGAGG,-0.111
6,CAAGTACG,0.156
7,TGGTTAAA,0.0949
8,AATGCTCT,-0.019
9,AGAGCGTC,-0.177
10,ATCTCCAG,0.0595
11,AGGTAAGC,-0.0609
12,ACTTTCTA,0.386
13,AACTCTCT,0.0603
14,AGGGCTCC,-0.227
15,AAACCAAT,0.259
16,AGTATGTC,0.104
17,GATGATTA,0.156
18,CGTACCCC,-0.296
19,ACCAGTAT,0.196
20,ACGTTTCC,-0.131
21,AAGTCAAC,-0.0762
22,ACGTGACC,-0.0609
23,GCTAAGTA,0.227
24,AGCTTGTA,0.13
25,ACAGTTTC,-0.0459

row,Sequence,binding signal [E-score]
1,ACCTTTAC,0.0906
2,ATAATTTA,0.354
3,AGCCCGAA,0.00241
4,CTGATAGC,0.125
5,CAGACACG,-0.0887
6,ACGCCCTG,-0.35
7,AATTCACT,0.168
8,CCACTGAC,-0.0216
9,ATGTCAAG,-0.0311
10,ACTAGTAT,0.409
11,ACTCAGTA,0.227
12,ACATCGTC,0.00981
13,AAAAGCTT,0.0543
14,CACTTGCA,-0.00496
15,GACTCTCC,-0.187
16,CGAAACTC,0.0357
17,GAGGTGCA,-0.184
18,AACACTAA,0.0512
19,AGAAAGTG,0.21
20,CCAACAAA,0.0597
21,CGCGAACG,-0.0781
22,CACCAGAA,0.0326
23,AGCTGTAG,0.038
24,GAAATTGA,0.0348
25,ACATCTCG,-0.0898

row,Sequence,binding signal [E-score]
1,CATTCGGG,-0.0955
2,ATGGCACC,-0.0965
3,ACCACTAA,0.147
4,CGGTATTA,0.254
5,ATTCAATC,0.12
6,TTAAAGAA,-0.0125
7,ACGGCTGG,-0.189
8,GGGGTCAC,-0.41
9,CATAACAC,0.105
10,TCGAGACA,-0.109
11,CCTCGTGA,-0.0659
12,AAGCCTTA,-0.0626
13,ACTAGAGC,0.108
14,ACACCAGC,-0.211
15,ATCGGTGA,-0.0895
16,TATATCAA,0.231
17,CTGCGAGC,-0.0742
18,AACCGCAA,-0.0997
19,AAGCAGGT,-0.000664
20,ACAGGAGT,-0.0353
21,GCGGCGCA,-0.292
22,AGTCTACG,0.0152
23,AAGCGAAT,-0.138
24,CTCACCAC,-0.106
25,GAGCAATA,0.158

row,Sequence,binding signal [E-score]
1,ATCCTTGA,0.0467
2,GCTTCACA,-0.0519
3,GATTAGCC,-0.0619
4,CGGGCCTC,-0.254
5,AGACCCCA,-0.298
6,ATCTCGCG,0.0418
7,GCAGGCAA,-0.117
8,GCCGACTA,-0.0903
9,GGAGACAC,-0.193
10,AGATCTCC,0.0315
11,CTGCAAAA,0.0588
12,GGTCGTAA,0.185
13,ACTCGGCC,-0.106
14,CGGACCAA,-0.0547
15,GCCGAGCC,-0.313
16,CGAACGGC,-0.176
17,CCGTGATC,-0.0994
18,CGTCGCGA,-0.0343
19,CGCTACTA,0.326
20,CACGGCGG,-0.192
21,ACTCGCAT,0.0369
22,GAGTACAC,-0.0815
23,GGCCGCAA,-0.169
24,GAACAGAA,0.109
25,ACTTTCCG,0.0104

row,Sequence,binding signal [E-score]
1,AATGCCCC,-0.198
2,CGTAGTAA,0.205
3,CACCTACC,0.112
4,CACACGGA,-0.234
5,CGTATGAC,-0.18
6,GATTACGC,-0.13
7,CCAAGGGC,-0.254
8,ATATCGAA,0.192
9,CCAGCACG,-0.0496
10,ACCTGGGC,-0.0242
11,CGCCATCC,-0.127
12,ACGTCGTA,0.0376
13,ATCGGCGG,-0.258
14,TGGCAAAA,0.122
15,CTCTCTTA,-0.197
16,ATTATGTA,0.354
17,ATTGAGCC,-0.168
18,CGCCACTA,-0.0108
19,ATGGTCCA,-0.0452
20,CCCTTTTA,-0.101
21,CAACTATA,0.277
22,GTGGAGGA,-0.201
23,GCGTACTA,0.168
24,ACTTGCGG,0.0115
25,CTCGTCCC,-0.227

row,Sequence,binding signal [E-score]
1,ACGACAGA,-0.103
2,CGATTCCA,-0.0275
3,ATGATCTC,-0.0768
4,GACGTGGA,-0.165
5,AAATTAGC,0.224
6,AATGCGCA,-0.0905
7,TATGGCAA,0.0295
8,AAGGGACT,-0.135
9,CAAAGCGC,-0.0715
10,TGTCTAAA,0.0873
11,TGAGACCA,-0.0997
12,ACCACCGC,-0.129
13,AAACAATA,0.286
14,AACTCCCC,-0.117
15,ATAAACGG,0.19
16,GTCTCGGA,-0.0689
17,TATTCACA,0.0873
18,GCAAACGA,-0.0523
19,ATCCATGG,0.113

# Source: publication PMC6212790
